Laboratory results taken from PMC11194079.
Read-outs that look alike come from different tables or passages of the source. These are yes or no findings as the source states them, for the method shown. Binding seen in cells or lysates may run through a third protein. Some results given as binding are weak or reduced against the parent protein; the word gives no strength. Values belong to the molecule of their own block, whether it stands above or below them.

By UniProt entry, the sequences of proteins in these tests, tags left out.
UniProt P61407: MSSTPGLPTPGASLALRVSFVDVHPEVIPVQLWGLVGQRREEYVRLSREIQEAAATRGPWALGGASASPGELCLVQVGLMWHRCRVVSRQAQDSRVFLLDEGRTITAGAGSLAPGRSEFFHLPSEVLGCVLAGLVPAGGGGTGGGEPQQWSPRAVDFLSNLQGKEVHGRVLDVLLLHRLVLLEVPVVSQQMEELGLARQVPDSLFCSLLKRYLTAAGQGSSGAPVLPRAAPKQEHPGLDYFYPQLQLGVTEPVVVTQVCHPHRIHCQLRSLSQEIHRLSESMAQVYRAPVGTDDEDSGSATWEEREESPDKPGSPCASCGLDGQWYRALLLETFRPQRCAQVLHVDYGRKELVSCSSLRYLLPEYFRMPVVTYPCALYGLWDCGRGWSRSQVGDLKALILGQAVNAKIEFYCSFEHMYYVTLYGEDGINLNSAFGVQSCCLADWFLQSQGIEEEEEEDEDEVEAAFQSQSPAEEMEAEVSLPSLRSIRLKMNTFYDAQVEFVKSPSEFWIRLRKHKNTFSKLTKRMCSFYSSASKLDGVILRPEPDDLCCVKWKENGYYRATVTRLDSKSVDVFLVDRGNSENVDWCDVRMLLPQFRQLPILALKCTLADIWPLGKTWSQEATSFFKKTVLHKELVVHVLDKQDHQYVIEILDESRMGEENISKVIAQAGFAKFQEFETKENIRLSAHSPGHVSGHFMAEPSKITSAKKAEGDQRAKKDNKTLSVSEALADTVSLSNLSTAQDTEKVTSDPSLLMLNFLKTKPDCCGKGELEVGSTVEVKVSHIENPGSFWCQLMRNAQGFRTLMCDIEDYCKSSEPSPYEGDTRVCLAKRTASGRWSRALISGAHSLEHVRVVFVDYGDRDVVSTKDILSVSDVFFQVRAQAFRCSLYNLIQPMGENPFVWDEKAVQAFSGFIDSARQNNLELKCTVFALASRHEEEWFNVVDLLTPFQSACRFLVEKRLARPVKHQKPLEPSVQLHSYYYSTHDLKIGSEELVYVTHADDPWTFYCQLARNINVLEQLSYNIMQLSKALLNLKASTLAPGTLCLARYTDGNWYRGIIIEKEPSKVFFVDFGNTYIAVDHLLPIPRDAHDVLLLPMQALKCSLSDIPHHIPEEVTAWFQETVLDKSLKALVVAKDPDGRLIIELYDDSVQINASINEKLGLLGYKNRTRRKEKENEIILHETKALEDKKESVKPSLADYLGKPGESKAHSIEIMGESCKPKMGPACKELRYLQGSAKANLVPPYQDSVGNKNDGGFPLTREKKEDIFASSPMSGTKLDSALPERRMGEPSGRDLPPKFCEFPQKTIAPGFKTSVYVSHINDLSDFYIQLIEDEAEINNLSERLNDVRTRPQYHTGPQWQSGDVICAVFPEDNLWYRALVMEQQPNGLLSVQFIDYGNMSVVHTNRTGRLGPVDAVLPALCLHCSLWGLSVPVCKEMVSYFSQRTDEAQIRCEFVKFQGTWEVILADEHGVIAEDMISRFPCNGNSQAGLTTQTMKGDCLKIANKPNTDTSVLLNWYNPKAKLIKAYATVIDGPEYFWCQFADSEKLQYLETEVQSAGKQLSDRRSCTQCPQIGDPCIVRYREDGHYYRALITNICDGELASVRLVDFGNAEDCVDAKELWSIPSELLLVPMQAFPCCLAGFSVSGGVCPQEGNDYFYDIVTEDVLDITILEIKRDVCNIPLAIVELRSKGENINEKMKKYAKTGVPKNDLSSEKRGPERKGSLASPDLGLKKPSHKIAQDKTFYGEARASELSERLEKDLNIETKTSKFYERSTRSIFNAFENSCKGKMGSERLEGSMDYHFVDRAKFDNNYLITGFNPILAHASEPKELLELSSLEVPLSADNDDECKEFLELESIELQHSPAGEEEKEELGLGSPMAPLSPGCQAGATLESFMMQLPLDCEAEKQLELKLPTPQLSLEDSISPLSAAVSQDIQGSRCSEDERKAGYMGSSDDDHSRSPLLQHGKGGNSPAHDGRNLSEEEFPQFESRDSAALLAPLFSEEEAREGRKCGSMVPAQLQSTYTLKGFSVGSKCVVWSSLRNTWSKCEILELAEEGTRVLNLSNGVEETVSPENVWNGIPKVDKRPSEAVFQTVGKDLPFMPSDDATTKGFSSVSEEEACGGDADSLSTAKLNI

Experiments:
Test in all cases: co-IP; MIWI immunoprecipitated with an antibody against MIWI and Protein G Dynabeads from P24 testis lysates (Miwi^+/RK or Miwi^RK/RK), 4°C; lysis and wash buffer 20 mM Tris pH 7.5, 200 mM NaCl, 2.5 mM MgCl2, 0.5% NP-40, 0.1% Triton X-100, 1 mM TCEP; western blot
[1] = biological target: MIWI (PIWIL1), wild type (mouse) (UniProt Q9JMB7)
[2] = biological target: MIWI (PIWIL1), wild type (mouse) (UniProt Q9JMB7); remark: listed apart in the source
[3] = biological target: MIWI-RK (MIWI with the six N-terminal arginines replaced by lysines) (mouse) (UniProt Q9JMB7)
[4] = biological target: T1, MIWI-RK (MIWI with the six N-terminal arginines replaced by lysines) (mouse), Q9JMB7; conditions: remark: other sources report otherwise
T1 chain: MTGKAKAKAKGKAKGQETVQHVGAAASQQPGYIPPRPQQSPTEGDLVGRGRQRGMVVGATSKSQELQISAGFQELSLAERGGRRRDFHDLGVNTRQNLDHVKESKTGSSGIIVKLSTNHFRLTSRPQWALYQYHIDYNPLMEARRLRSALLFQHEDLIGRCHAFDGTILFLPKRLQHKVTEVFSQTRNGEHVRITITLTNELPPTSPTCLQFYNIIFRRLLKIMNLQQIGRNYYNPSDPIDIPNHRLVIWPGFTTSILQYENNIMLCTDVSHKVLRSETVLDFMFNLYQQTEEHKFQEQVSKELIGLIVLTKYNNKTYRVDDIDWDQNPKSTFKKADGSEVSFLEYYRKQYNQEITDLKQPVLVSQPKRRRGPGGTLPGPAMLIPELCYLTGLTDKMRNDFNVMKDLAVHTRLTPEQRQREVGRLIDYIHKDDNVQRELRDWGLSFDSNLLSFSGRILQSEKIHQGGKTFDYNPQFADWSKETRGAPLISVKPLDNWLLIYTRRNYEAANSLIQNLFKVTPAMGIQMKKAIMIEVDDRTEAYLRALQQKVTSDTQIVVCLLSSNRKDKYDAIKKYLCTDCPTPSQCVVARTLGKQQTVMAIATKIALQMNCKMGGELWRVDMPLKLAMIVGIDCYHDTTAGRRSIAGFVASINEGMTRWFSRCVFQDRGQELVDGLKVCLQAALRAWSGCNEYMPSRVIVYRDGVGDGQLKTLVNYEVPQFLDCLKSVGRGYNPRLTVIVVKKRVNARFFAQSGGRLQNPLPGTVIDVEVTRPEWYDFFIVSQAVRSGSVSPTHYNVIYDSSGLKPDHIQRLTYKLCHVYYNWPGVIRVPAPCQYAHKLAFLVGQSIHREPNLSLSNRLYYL

binding [1]: binds
Molecule: TDRD6 (from UniProt P61407 1-2134)

binding [2]: binds
binding [3]: no binding
B1: TDRKH (TDRD2) (protein, UniProt Q80VL1 1-560)
chain: MSTERTSWTNLSTIQKIALGLGIPASATVAYILYRRYRESREERLTFVGEDDIEIEMRVPQEAVKLIIGRQGANIKQLRKQTGARIDVDTEDVGDERVLLISGFPVQVCKAKAAIHQILTENTPVFEQLSVPQRSVGRIIGRGGETIRSICKASGAKITCDKESEGTLLLSRLIKISGTQKEVAAAKHLILEKVSEDEELRKRIAHSAETRVPRKQPISVRREEVTEPGGAGEAALWKNTNSSMGPATPLEVPLRKGGGDMVVVGPKEGSWEKPNDDSFQNSGAQSSPETSMFEIPSPDFSFHADEYLEVYVSASEHPNHFWIQIIGSRSLQLDKLVSEMTQHYENSLPEDLTVHVGDIVAAPLSTNGSWYRARVLGTLENGNLDLYFVDFGDNGDCALKDLRALRSDFLSLPFQAIECSLARIAPTGEEWEEEALDEFDRLTHCADWKPLVAKISSYVQTGISTWPKIYLYDTSDEKKLDIGLELVRKGYAVELPEDMEENRTVPNMLKDMATETDDSLASILTETKKSPEEMPHTLSCLSLSEAASMSGDDNLEDDLF

binding [2]: binds
B2: TDRD5 (protein, UniProt Q5VCS6 1-1040)
chain: MSEQERIQDCLRKEIRSLLISTKDGLTPQQLEKEYLLMVGNHLPLRILGYRSTMELVLDMPDVVSVCPGGDGTVILKAIPDESTKGIASLVAKQRRSHKVRNSMPKGRPSICSGRVPYRGRVPPILPAVVKSELKDLLALSPVLLSDFEKAFARRFGRSFQYMQYGFLSMFEVLNAASDVISVEQTRAGSLLTLKKSVSEDKQRGWPAGKVFTQPFRMKQQGSYSTGFPVMKAHFSQPISNMEPPKQVLSMAKTPTFNSVEASRLNHTEKLNQLESTFKSVIAQIGPGGTVDPELKRKIQFVVSKFPQGLFISKLLGEFELTFKEQLSPKQLGFLNVTELVGALSDILRVEFSEERQDLLVFDADLKPLPSGGPLSSVRNSCLVQPDKKTEANPWTSSLSRNSLSTVAVKKTTWDCPLKNQKEPEQKIYKKPNLVVKPLQLQVETNKPQLSLSVANHDIPPDAVRAKKLCRLPPLDTSTLVGVFVEYIISPSQFYIRIYSRDSSELLEDMMIEMRRCYSNQLVSDRYIMPEYFIQPGHLCCVKISEDKWWYRVIIHRILGKKEVEVFYPDFGNIGTVQKSSLRFLKCCYTKLPAQAIPCSLAWVRPAEEHWTARAILHFQKLCGLKPLVGVVDEYIDGILNIFLCDTSSNEDVYFHHVLRTEGHAIVCRENAPSKGFRDFNPPALYTNASSAGDMVLTDLGHPAQQHYLNEDQEILQQAQQDINDGKCISYLKSAPKELLKDSKLSSLKTHKSCEEDPRWSILQPKDLKEENEDEVPTGMPCLESVTIGDDVWDENWLPLQAKMGKAGSPASQLFTSNLVGKKQYQTGGEMAQKDWCFSTSKDIWDDSWQPLGLANDVKGGIHTPEGPIAQEKNTSTTRIQQQPDLQYPLDSSTLPKLEEFYISLIKSQQSAERSQSEPASIQTHAGRAASKALSSTPAVGDSPENHSGSVESSPGSLKKEDVSNSRAEATAKDKSQGAIDQLSFILSPQHQISQKLYIPRSTATAVLGAAARLATSRSLLHWYPSVKGGKLEAERDGVK

binding [4]: no binding
B3: TDRD5, Q5VCS6 1-1040 (protein)
chain: B2 chain
